In publication PMC4336329 (PLoS ONE, 2015):
Hit rate of the full screen: of about 310,000 compounds, about 2,200 (0.71%) showed an effect of 50% or more. Effects have a minus sign here. Some of the results follow.

biological target: human ether-à-go-go-related gene (hERG) potassium channel (human, UniProt Q12809); test: primary screen, population patch clamp on CHO cells stably expressing hERG
Sequence (Q12809 whole entry, looked up): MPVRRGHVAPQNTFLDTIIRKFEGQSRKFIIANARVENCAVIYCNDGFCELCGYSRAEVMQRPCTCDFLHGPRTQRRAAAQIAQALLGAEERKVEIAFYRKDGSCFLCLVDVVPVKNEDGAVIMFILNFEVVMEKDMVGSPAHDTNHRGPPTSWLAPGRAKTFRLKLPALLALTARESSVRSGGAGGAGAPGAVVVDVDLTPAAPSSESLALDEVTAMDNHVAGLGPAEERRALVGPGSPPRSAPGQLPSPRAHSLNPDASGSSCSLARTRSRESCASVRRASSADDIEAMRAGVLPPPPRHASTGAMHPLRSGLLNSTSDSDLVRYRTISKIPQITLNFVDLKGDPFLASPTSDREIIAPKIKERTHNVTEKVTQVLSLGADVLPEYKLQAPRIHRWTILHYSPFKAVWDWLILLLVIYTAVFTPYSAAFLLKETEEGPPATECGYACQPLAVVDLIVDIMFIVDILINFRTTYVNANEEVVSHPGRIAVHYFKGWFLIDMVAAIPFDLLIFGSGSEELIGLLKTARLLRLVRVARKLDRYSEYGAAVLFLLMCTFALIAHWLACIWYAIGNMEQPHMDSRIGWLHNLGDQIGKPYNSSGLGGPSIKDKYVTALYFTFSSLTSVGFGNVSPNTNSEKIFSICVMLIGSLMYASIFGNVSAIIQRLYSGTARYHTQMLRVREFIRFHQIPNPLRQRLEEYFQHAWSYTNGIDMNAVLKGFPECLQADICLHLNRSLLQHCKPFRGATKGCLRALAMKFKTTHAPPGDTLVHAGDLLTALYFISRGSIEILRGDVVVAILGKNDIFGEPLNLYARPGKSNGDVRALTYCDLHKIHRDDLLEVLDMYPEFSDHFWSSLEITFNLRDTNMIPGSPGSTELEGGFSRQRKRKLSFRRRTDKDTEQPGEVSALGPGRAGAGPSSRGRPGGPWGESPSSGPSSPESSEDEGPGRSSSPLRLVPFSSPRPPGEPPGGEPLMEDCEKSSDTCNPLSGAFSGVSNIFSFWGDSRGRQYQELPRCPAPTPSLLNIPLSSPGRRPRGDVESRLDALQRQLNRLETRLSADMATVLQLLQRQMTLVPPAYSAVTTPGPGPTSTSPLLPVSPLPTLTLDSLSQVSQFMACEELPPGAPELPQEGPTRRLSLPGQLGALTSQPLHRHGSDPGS

SMILES	hERG current change (%, negative = inhibition) at 1uM
COc1ccc(/C=C(\NC(=O)c2cccs2)C(=O)Nc2ccccc2C)cc1OC	11.9%
O=C(Nc1nc(-c2ccncc2)cs1)C1COc2ccccc2O1 (centres unmarked)	-6.37%
Cc1ccc(-n2nc3c(N4CCC(C(=O)NCCc5ccco5)CC4)nnc(C)c3c2C)cc1	4.24%
O=C(CSc1nnc(CNC(=O)c2cccs2)o1)Nc1ccccc1F	10.2%
COc1cc(CC(=O)OCC(=O)N2CCCCC2)cc(OC)c1OC	12.5%
O=C(NC1CCN(Cc2ccccc2)CC1)C1CCN(S(=O)(=O)c2cccc3cccnc23)CC1	3.33%
COc1ccccc1NC(=O)CCc1c(C)[nH]c(=O)c(C#N)c1C	-11.5%
C[C@@H]1O[C@@H](Oc2c(-c3cc(O)c(O)c(O)c3)oc3cc(O)cc(O)c3c2=O)[C@H](O)[C@H](O)[C@H]1O	-6.82%
Cc1c(C(=O)Nc2ccc(S(=O)(=O)Nc3ncccn3)cc2)oc2ccc(Cl)cc12	-11.4%
COc1cc2cnc(Cl)nc2cc1OC	10.1%
COc1ccc(NC(=O)CN(C)C(=O)c2c(-c3c(F)cccc3Cl)noc2C)cc1	2.1%
COc1ccc(NC(=O)CCC(=O)c2cccs2)cc1S(=O)(=O)Nc1ccccc1Cl	10.7%
COc1cc(/C=N/NC(=O)c2cc(C)oc2C)ccc1OCc1ccccc1	7.16%
CC(=O)c1cccc(NS(=O)(=O)c2ccc(N/C=C\C(=O)c3ccc(C)cc3)cc2)c1	12.1%
CN(C)S(=O)(=O)c1cccc(C(=O)Nc2ccc(Cl)cn2)c1	2.97%
COc1ccc(NC(=O)C(=O)Nc2cccc3ccccc23)c(OC)c1	4.97%
C#CCOCCOCCOCCNc1nc(N2CCN(C(=O)[C@H]([C@@H](C)CC)n3cc([C@@H](N)Cc4ccc(O)cc4)nn3)CC2)nc(N2CCN(C(=O)[C@H](CCCCN)n3cc([C@@H](N)CO)nn3)CC2)n1.Cl	13.7%
Cc1cc(NC(=O)CSC2=Nc3ccccc3C3=NC(Cc4ccccc4)C(=O)N23)n[nH]1 (centres unmarked)	1.35%
CC(C)(C)NC(=O)COC(=O)C1c2ccccc2Oc2ccccc21	8.62%
Cc1c(Cl)cccc1NC(=O)C1CCN(c2cnccn2)CC1	-0.949%
COc1ccc(C(=O)c2c3ccccc3[n+]([O-])n2Cc2ccc(C(N)=O)cc2)cc1	11.2%
CC#CCCCC(=O)Nc1cc(OC)nc(OC)n1	-2.41%

SMILES	hERG current change (%, negative = inhibition) at 1uM
Cc1c(Cl)cccc1NC(=S)NCc1ccco1	-0.475%
CN(c1ccccc1C(=O)Nc1cccc(Cl)c1Cl)S(C)(=O)=O	13.9%
COc1ccc(S(=O)(=O)NCCOc2ccccc2)cc1OC	3.77%
CC(=O)N/C(=C/c1ccccc1)c1ccccc1	12.8%
Cc1cc(C)cc(NC(=O)CCC(=O)Nc2nnc(C(C)C)s2)c1	14.3%
Cc1ccc(-n2c([C@@H]3C[C@H]3c3ccccc3)n[nH]c2=S)cc1	18.6%
O=C(COC(=O)C1CCN(S(=O)(=O)c2cccs2)CC1)NCc1ccc(F)cc1	-4.52%
O=C(CN1CCOCC1)NNc1c2ccccc2nc2ccccc12	8.09%
C=CCc1cccc(/C=C/c2cc(=O)c3ccccc3[nH]2)c1O	11.3%
CCCc1nnc(NC(=O)c2c(O)c3cccc4c3n(c2=O)CCC4)s1	-9.4%
CCOC(=O)c1ccc(NC(=O)C(=O)NCCc2ccc(OC)cc2)cc1	11.6%
Cc1ccc(Cl)cc1NC(=O)c1ccc(NC(=O)CCC(=O)O)cc1	4.85%
COC(=O)c1sc(NC(=O)c2c(C)noc2C)nc1C	-17.3%
COc1ccc(NC(=O)CSc2nc3ccccc3c(=O)n2Cc2cccs2)c(OC)c1	4.67%
O=c1[nH]c2cc3c(cc2cc1CN(CC1CCCO1)S(=O)(=O)c1ccccc1)OCCO3 (centres unmarked)	-1.43%
Cc1ccc(C)c(NC(=O)CN(C)C(=O)Cc2ccc(Cl)cc2Cl)c1	15.6%
CSc1ccccc1NC(=O)c1ccc(Cl)s1	0.228%
Cc1ccc(NC(=O)Nc2cccc(F)c2)nc1	24%
CC(=O)c1c(-c2ccccc2)c2cc(Cl)ccc2[nH]c1=O	13.7%
CCCCOC(=O)C1=C(N)N2C(=O)C(C)SC2=C(C(=O)OCC)C1c1ccc(O)c(OC)c1 (centres unmarked)	8.97%
O=C(O)c1cc(-c2ccccc2Cl)n(-c2ccccc2)n1	11.4%
CCc1cc2ccc(C)cc2nc1SCC(=O)Nc1cc(OC)c(OC)cc1C(=O)O	8.8%

SMILES	hERG current change (%, negative = inhibition) at 1uM
CCOC(=O)Nc1ccc(N2CCOCC2)c(S(=O)(=O)N2CCOCC2)c1	-4.79%
COC(=O)[C@@]12CCCCN1[C@H](c1ccc(-c3cccc(Cl)c3)cc1)[C@H]1C(=O)N(C)C(=O)[C@H]12.O=C(O)C(F)(F)F	8.53%
COc1ccccc1-n1nnnc1S(=O)(=O)Cc1ccc(Cl)cc1	8.96%
C=CCN1C(=O)C(CC(=O)Nc2ccc(C)cc2)SC1=Nc1c(C)n(C)n(-c2ccccc2)c1=O (centres unmarked)	9.99%
CCn1ncc(CN2CCCC(CNC(=O)c3ccc(F)cc3)C2)c1C (centres unmarked)	1.73%
COc1ccc(CNC(=O)c2ccc(NC(=O)C3=CSCCO3)cc2)cc1	17.6%
CCCn1c(N)c(N(CCOC)C(=O)/C=C/c2ccc(C(=O)OC)cc2)c(=O)[nH]c1=O	3.86%
CCCC(=O)N(Cc1cccnc1)c1nc2c(OC)ccc(Cl)c2s1	5.79%
Cc1cc(C)c(NS(=O)(=O)c2ccc3c(c2)NC(=O)CCS3)c(C)c1	7.9%
CN(CC#CCC(c1ccccc1)c1ccccc1)C(C)(C)C.Cl	-56.4%
Cc1cc(=O)[nH]c(SCC(=O)Nc2ccc(S(=O)(=O)N3CCCCC3)cc2)n1	-0.575%
CCOC(=O)c1c(C)n(C)c2ccc(O)c(CN(CC)CC)c12.Cl	2.09%
C=CCn1c(SCC(=O)NC)nnc1C12CC3CC(CC(C3)C1)C2	8.97%
NS(=O)(=O)c1cccnc1Nc1c(Cl)cccc1Cl	1.55%
Cc1nnc(Cn2cnc3c2c(=O)n(C)c(=O)n3C)o1	18.7%
N#C/C(=C\c1cccs1)Sc1nc2ccccc2s1	12.7%
CSCCC(NC(=O)COc1ccccc1)C(=O)N1CCN(c2ccccc2O)CC1 (centres unmarked)	-2.64%
Cc1occc1C(=O)Nc1nnc(C2CCCCC2)s1	-3.72%
CCOC(=O)N1CCN(c2cc3nccnc3cc2F)CC1	7.44%
O=C(Nc1ccc(Cl)cc1C(F)(F)F)c1ccccc1Cl	12.9%
c1ccc(-c2nnc(CSc3ccc4c(c3)OCCO4)o2)cc1	1.69%
CCCCc1n[nH]c2c1C(=O)CC(C)(C)C2	6.29%

SMILES	hERG current change (%, negative = inhibition) at 1uM
CC(C)CC(=O)NS(=O)(=O)c1ccc(N)cc1	13.6%
CC(=O)c1cccc(OCC(=O)c2cc(C)n(-c3cc(C)on3)c2C)c1	3.41%
CCOP(=O)(C#CC(C)(C)C)C1(O)CCCCC1 (centres unmarked)	3.83%
Cc1ccc(C(=O)NCCCc2ccccc2)c(Cl)c1	11.5%
C=CCNC(=O)N1CCC(CO)(Cc2ccc(Cl)cc2)CC1	10.7%
CCCCCOc1ccc(C(=O)OCC(=O)Nc2cc(C)c(C)cc2[N+](=O)[O-])cc1	5.18%
Cc1onc(-c2ccccc2Cl)c1C(=O)Nc1sc2c(c1C(N)=O)CCC(C)C2 (centres unmarked)	21.2%
COC(=O)C1CCN(S(=O)(=O)CCNC(=O)c2ccc(F)cc2)CC1	0.112%
Cc1cc(NC(=O)CCC(=O)N(c2ccc(F)cc2)C(C(=O)NC2CCCC2)c2ccc(C)o2)no1 (centres unmarked)	20.6%
C/C(=N\Nc1nc(C)cc(C)n1)c1ccc(C)o1	9.51%
CSCC(C)N1CCC(n2nccc2NC(=O)c2ccccc2C)CC1 (centres unmarked)	-9.65%
O=C(Nc1ccc(-n2cccn2)cc1)C1CCN(Cc2ccccn2)CC1	12.7%
FC(F)(F)c1cc(Oc2ccccc2Cl)nc(-c2ccccn2)n1	1.53%
COC(=O)c1ccc(/C=N/N2C(C)CCCC2C)cc1 (centres unmarked)	4.76%
COc1ccc(/C=C2\CCCC3C2=NC(=S)NC3c2ccc(OC)cc2)cc1 (centres unmarked)	6.2%
Cc1ccc(CNC(=O)c2ccc(N(C)C)cc2)cc1	1.58%
CC1CCc2c(sc3nc(CN4CCOCC4)nc(N4CCc5ccccc5C4)c23)C1 (centres unmarked)	4.9%
CN(CCCOc1ccccc1F)Cc1ccccc1.O=C(O)C(=O)O	-1.16%
CN(C(=O)C1CCCN(c2ncnc3c2nc2n3CCCCC2)C1)c1cccc(Cl)c1 (centres unmarked)	-14.5%
CCCOC(=O)c1ccc(Oc2c(-c3ccc(OC)cc3O)n[nH]c2C)cc1	5.63%
